We go through 88 sequences from the supplement of paper PMC11417369.

The list shows a part of the results.

This assay has as its system PfSIP2 AP2 domain 1 (GST-tagged). The experiment in a line: gcPBM binding intensity (ln(normalized median fluorescence intensity)); higher = stronger DNA binding. The method in brief: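 GST-tagged P. falciparum DNA-binding domains produced in E. coli were incubated for 1 h on an Agilent 4 × 180k array of primer-extended double-stranded 36-bp intergenic genomic probes with negative controls. Binding intensity is the highest Masliner-normalised natural-log median intensity across replicate spots of either probe orientation, with bound protein detected by Alexa488 anti-GST antibody at 488 nm.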
In the case of “GTAATCCACAAACACACACACATACACATATATATA [CACACA_site2728]”, the “gcPBM binding intensity (ln)” value is 7.49.
As for “ATCATTTTTAATAAATGTACAAGTTTTAAAAAAAAA [XGTACX_site7340]”, the figure is 6.82.
The figure for “AAAAAAACAACATGCACACGCACACCCAAAAAAAGC [CACACA_site72]” is 7.96; for “GTGTATTTTGTGCGCACACACATGCAAAAAGAAATA [CACACA_site6660]” it is 9.54.
The figure for “TACACATGTTTAAAATGTACGTTTTATAACACACAC [XGTACX_site8229]” is 7.6; for “GGTAGGTGAATATATACACACATATATTATATATAT [CACACA_site1984]” it is 7.74; for “TTTTACAAGTATTGATAAATAAGAAATATATAAAAT [CACACA_negctrl_site529]” it is 6.82.
Turning to “AAAAAAAATTAAGCATGTATAAATATATATATATAT [CACACA_negctrl_site1540]”, the “gcPBM binding intensity (ln)” value was determined as 9.53.
For “ATTATATTAATTTATAGTACAATATTTATATATATG [XGTACX_site4668]”, the “gcPBM binding intensity (ln)” value was 6.98.
On to “TATATATTACTTTTTTGTACGAATTTTACAACTACG [XGTACX_site3473]”, for which the “gcPBM binding intensity (ln)” value amounted to 7.04.
The figure for “TATTAAAATATTCTCACACACCAAAATATGTATGTA [CACACA_site6565]” is 6.71.
As for “AAAAAAAAAAAAAAAAAAAGAAAAGAAAATAGGGTT [GTGCAC_negctrl_site421]”, the figure is 7.97; as for “AGGAGGAACAAACAAAACAATAAAAATTATAATAAA [GTGCAC_negctrl_site206]”, 6.93.
The figure for “AAAAGACATTTTTTTTTATAAATACACACGTACGTG [TGCATGCA_negctrl_site281]” is 6.95; for “TTCAAAGACACAATCACACACATACATAAATATACA [CACACA_site687]” it is 7.01.
As for TTCCAAGAAATAATAGTGCATTATTCATTTTAATAA, the “gcPBM binding intensity (ln)” value came to 10.1.
Consider “AATATACATAACAAGGTGCAAAAAATATTGTTCATA [GTGCAC_site9499]”, for which the “gcPBM binding intensity (ln)” value is 10.9.
Take “TTATTATTATGATTATTATGATGATTATACAACTGT [TGCATGCA_negctrl_site241]”: the “gcPBM binding intensity (ln)” value came to 7.
Turning to “TATTAATTATAAGATGCATGTGCAAAAATATGTTCC [TGCATGCA_site51]”, the “gcPBM binding intensity (ln)” value was found to be 7.6.
Consider “TTTCTTTGTATTTATAGTACATATTTTAATAACTGC [XGTACX_site6673]”, for which the “gcPBM binding intensity (ln)” value was 7.08.
As for “ATAATATTTTATTATACATGCAAATTATTATATATA [TGCATGCA_site40]”, the figure is 6.79.
“TTTCCGGTAATATGGAGATATATGTGGGTTTTTTTT [GTGCAC_negctrl_site374]”: the “gcPBM binding intensity (ln)” value was 6.65.
The figure for “ACAAAATTTACAAAATGTACAAAGTATGTGTTTTAT [XGTACX_site6462]” is 6.85; for “ATATTTTTTTTTTTCACACACATTTATATTGTATTA [CACACA_site5695]” it is 7.24; for “AGAAAAAAGAGGGATACACACAAACATATATTTATA [CACACA_site7122]” it is 6.93.
For the sequence “GATTAAAATCAAAGGTGTACGCACAAATAAGTCCCA [XGTACX_site4360]”, the “gcPBM binding intensity (ln)” value came to 6.89.
With “CACCCTTTGTTTTAGAGTACATATGTATATACGTAA [XGTACX_site7964]”, the “gcPBM binding intensity (ln)” value is 7.53.
As for “TATATATATTTATGTACACACATATATACCTTTCAT [CACACA_site5479]”, the figure is 7.58.
As for “AACTTGTATTTATACACACACACACTAGCTTTTTTT [CACACA_site5132]”, the “gcPBM binding intensity (ln)” value came out at 6.94.
As for “AGAATTAAAAACAGTTGTACAAAAAGTTGTATAAAT [XGTACX_site411]”, the figure is 6.95.
The figure for “TATAGCTTTCATTATACACACATCAAAAATTTAAAT [CACACA_site227]” is 7.29.
Consider “AGTAATAAATTTTATACATGCATAAAAAAAAAAAAA [TGCATGCA_site661]”, for which the “gcPBM binding intensity (ln)” value was determined as 7.03.
The figure for “TTAAAAATCATTTAAGAACACACAAATATTTCCATT [CACACA_site8418]” is 6.79.
The figure for “TATATTTATTTTTAATGTACATATTTAAGAAAACTA [XGTACX_site4920]” is 7.36; for “GACTCATTAAGGATTATTCCTAATGATCAAAAGAAC [CACACA_negctrl_site515]” it is 7.12.
As for “TGATTCTTTTCAAAGTGTACAGTAATTTTTATGTAA [XGTACX_site8452]”, the figure is 7.05; as for “TATATAATTCAAAAATGTACATGAAATATAAATATT [XGTACX_site7984]”, 6.78.
Take “ATATTATAAATTATAGGTACACACAAAAAAAAAAAG [XGTACX_site2637]”: the “gcPBM binding intensity (ln)” value is 7.3.
The figure for “AAGTTTTCTTAAAGATGTACTTTTTAAAAATAAAAT [XGTACX_site3063]” is 7.02.
The figure for “AAATATATTGCATATATACACACGTATATATATTAA [CACACA_site2759]” is 6.97; for “ATATCAAGCTATGAGAAAAAAAAAAAGAAAAAAAAA [CACACA_negctrl_site1370]” it is 6.89.
The figure for “TTAAATAAAAAAATAACACACATATAAATCTATATG [CACACA_site7482]” is 6.72; for “GCCATTAATTTATACACACACATTATAACTTTTTAT [CACACA_site6492]” it is 7.44.
“TATCAGCAATGGAAAACATGCAAAAAATTAATATAT [TGCATGCA_site623]”: the “gcPBM binding intensity (ln)” value stood at 6.97.
The figure for “TCTTCAAAGACACAATCACACACATACATAAATATA [CACACA_site8128]” is 7.16; for “AATACGTTTCAAAAATGTACACATATATCATAAATA [XGTACX_site8962]” it is 7.26; for “ATCAAAAATGTTATATATATATATATATATATATAT [TGCATGCA_negctrl_site71]” it is 9.85.
The figure for “TTTTATTTTCGATGATGTACATTAAATTATACAGTA [XGTACX_site6053]” is 7.01.
The figure for “AAATATTACTCCTCAAGTACACATAAAAAAAAAATA [XGTACX_site2085]” is 7.25.
Turning to “TATTTTTTTTGATATTGTACTTTTTTATTATTTTTT [XGTACX_site566]”, the “gcPBM binding intensity (ln)” value stood at 7.04.
The figure for “TAAAAATTTAAGAAAACATGCATCTAACATATATAT [TGCATGCA_site342]” is 7.13; for “AATATACAAAATAAATAAAATATATATATATATATA [CACACA_negctrl_site216]” it is 9.48.
As for “TTACATGCTAAAATTTGTACATATATGATAAATATT [XGTACX_site2648]”, the figure is 7.06; as for “ATACATAAATTTATACGTACATATATAGATACATAA [XGTACX_site675]”, 7.38.
The figure for “TTGTTTTCACCAAATACACACAAGCATACACCCCAT [CACACA_site2717]” is 7.49.
For “AAGTAAAATAAGTATACACACATAAATATGTAAATA [CACACA_site6467]”, the “gcPBM binding intensity (ln)” value stood at 6.9.
The figure for “GTATATATGTATGTATGTACTTATAAAGTTGCATAT [XGTACX_site5616]” is 7.42.
Take “TCTACATCTGTATATAAACACACAACAAAAATGCTT [CACACA_site9271]”: the “gcPBM binding intensity (ln)” value turned out to be 6.81.
Regarding “TATTTATTGTGATACTTATATTATTTCATGATTAAT [CACACA_negctrl_site738]”, the “gcPBM binding intensity (ln)” value amounted to 6.88.
“ACTTTATTATATATTTGTACATATATTTTTAATTTC [XGTACX_site4144]”: the “gcPBM binding intensity (ln)” value was 7.34.
The figure for “TATATATTTCAATAATGTACATATAATATATATATT [XGTACX_site4124]” is 7.01.
Take “TTCTTACACAAAAAAATGAAATCAATCAAAAAAAAA [CACACA_negctrl_site869]”: the “gcPBM binding intensity (ln)” value turned out to be 6.98.
Turning to “AATGTGTAGACACGCACACACAAAAAAATATTTATA [CACACA_site7384]”, the “gcPBM binding intensity (ln)” value was found to be 7.01.
The figure for “AAGTAATCATCATAAAGTACTAAATTATATTGTCAA [XGTACX_site5841]” is 6.76.
GAAAATATATTTAAGATGCACTTTAAAAATGTACTT: the “gcPBM binding intensity (ln)” value came out at 8.4.
For the sequence “AAATTATATATAAAATGTACATATGTAGGTAATTTT [XGTACX_site5047]”, the “gcPBM binding intensity (ln)” value was 7.07.
With “ACATTCTGATGGTGATTATTAATTATTACAAAAATT [CACACA_negctrl_site283]”, the “gcPBM binding intensity (ln)” value amounted to 6.95.
On to CAATTTATTATATATGTGCACATATAATTTTACAAA, for which the “gcPBM binding intensity (ln)” value was determined as 8.31.
The figure for “TAATTATTTTTATTGTTGCACTAGTAAAATTTTAAG [GTGCAC_site9946]” is 8.83.
On to “AATACAAATATATATGCACACACATATACATACATA [CACACA_site8677]”, for which the “gcPBM binding intensity (ln)” value was 7.25.
As to “TACATTTTAATATAAGCATGCCTTTAGTTTTTTTCT [TGCATGCA_site829]”, the “gcPBM binding intensity (ln)” value stood at 6.61.
As for “AAAAAGAAATACAAATAATATATATATATATATATT [TGCATGCA_negctrl_site458]”, the “gcPBM binding intensity (ln)” value stood at 7.57.
Regarding “CATAAAAATTGAAGCACACACACAAAAGAAATACAA [CACACA_site1112]”, the “gcPBM binding intensity (ln)” value amounted to 7.05.
On to “AATAAACAAATAAATAAACACACAATATATGTATAT [CACACA_site9268]”, for which the “gcPBM binding intensity (ln)” value worked out at 6.88.
As for “TTTCTTTAACAAGTTAAACACACATACATATATACA [CACACA_site8810]”, the figure is 7.06.
The figure for “ATCATTTCTATATAAGCACACACGTGGAATTTTTTT [CACACA_site2786]” is 7.04; for TTACTTATATGCATAGTGCAAATTTGGTAAATATCT it is 8.81.
Regarding “CACATACAGATATATACACACAAATATAAATACACA [CACACA_site6512]”, the “gcPBM binding intensity (ln)” value was 7.21.
“AATAAATATAAAAATGCACACACACTAATAAAAAAA [CACACA_site8201]”: the “gcPBM binding intensity (ln)” value came to 7.79.
The figure for “AAAATAAATATATTATCCACGTTGTATATATATATA [XGTACX_negctrl_site136]” is 9.42; for “AGCGTATAACATATGACACACACACCGACATACACA [CACACA_site8532]” it is 6.91.
With “ATATATATATGGAAGTGTACTTATATAGCATACTAG [XGTACX_site5130]”, the “gcPBM binding intensity (ln)” value came out at 8.77.
As for “TACGTATCATAATTTTATTTTATATATATTCACAAA [XGTACX_negctrl_site144]”, the figure is 6.91; as for “AAATTTTTATAATTATCACACATTGAATTGTGGTCT [CACACA_site4343]”, 6.71.
For “ATTCACAAATATATGGTGCATAATATATATATATAT [GTGCAC_site9674]”, the “gcPBM binding intensity (ln)” value came to 10.6.
With “AACAATTATTGTAATGCATGCACTGAATATAGAAAG [TGCATGCA_site889]”, the “gcPBM binding intensity (ln)” value was 9.15.
With “AATATGTAAATATGGGTGCTTTAAAATATATTCATT [GTGCAC_site9583]”, the “gcPBM binding intensity (ln)” value was found to be 7.39.
The figure for “TTCCAATGATAAAATTGTACTTGAAGAAAATTTTTT [XGTACX_site4607]” is 6.67.
